Among the data in the supplement of paper PMC10369915 are enrichment score values, retold here.

This is one part of the list. Rule as the data show it: active = 3.2 or more and inactive = the rest. Most of these values are background signal.
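Also: displayed peptides selected on beads carrying the immobilized SH2 domain, with library peptides lacking any tyrosine serving as negative controls.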

For one assay, the target named is SHP2 C-SH2 domain E139D. Description: enrichment score (SH2-bound / input frequency) (ratio); bacterial display of known human phosphotyrosine sites (pTyr-Var adds point mutants) read by sequencing; higher = stronger binding; tyrosines were phosphorylated by kinases first. The following applies: peptide library: pTyr-Var.
As to EYITRYIASLK [PSMA7_Y110], the enrichment score is inactive: 1.1.

PSQRHYVYYYS [PTEN_Y174_R173H]: the enrichment score was inactive: 1.87.

For the molecule SDVDLYQVRIA [PSMD9_Y70_T74I], the enrichment score is inactive: 0.724.

For PSQRPYVFFFS [PTEN_Y174_R173P_YF], the enrichment score was active: 3.59.

On to PASWTYVRWFD [PTDSS1_Y274], for which the enrichment score is inactive: 1.29.

Turning to SSTAMYSAAGR [PSMB1_Y8_P11A], the enrichment score was inactive: 0.465.

For PDDPDYSLVDD [PSTPIP2_Y323_N322D], the enrichment score was inactive: 0.521.

Regarding QRRNVYFFSFL [PTEN_Y176_Y174N_YF], the enrichment score is inactive: 1.58.

Regarding QRRYLYYYSYL [PTEN_Y176_V175L], the enrichment score was inactive: 0.405.

Consider QRRYVYYYSYL [PTEN_Y176], for which the enrichment score is inactive: 0.646.

As to PNQRRYVFFFS [PTEN_Y174_S170N_YF], the enrichment score is inactive: 1.01.

For the molecule VMICAYLLHRG [PTEN_Y138], the enrichment score was inactive: 1.64.

Consider PSQRRYLYYYS [PTEN_Y174_V175L], for which the enrichment score was inactive: 0.222.

Consider EALDFCGEVRT [PTEN_Y155_Y155C], for which the enrichment score was inactive: 1.16.

As to IMICAYLLHRG [PTEN_Y138_V133I], the enrichment score is inactive: 1.91.

For the molecule SSTAMYSAPGR [PSMB1_Y8], the enrichment score was inactive: 0.661.

As for QRRFLYFFSFL [PTEN_Y176_V175L_YF], the enrichment score was inactive: 0.679.

As for PNQRRYVYYYS [PTEN_Y174_S170N], the enrichment score was inactive: 0.537.

In the case of QRCYVYYYSYL [PTEN_Y176_R173C], the enrichment score is inactive: 0.884.

The target in a further assay is SHP2 C-SH2 domain wild-type. The assay is described as above. The conditions noted are these: peptide library: pTyr-Var.
As to EYITRYIASLK [PSMA7_Y110], the enrichment score is inactive: 1.2.

On to PSQRHYVYYYS [PTEN_Y174_R173H], for which the enrichment score is inactive: 1.87.

For the molecule SDVDLYQVRIA [PSMD9_Y70_T74I], the enrichment score is inactive: 0.745.

PSQRPYVFFFS [PTEN_Y174_R173P_YF]: the enrichment score is inactive: 3.1.

For PASWTYVRWFD [PTDSS1_Y274], the enrichment score is inactive: 1.62.

Regarding SSTAMYSAAGR [PSMB1_Y8_P11A], the enrichment score was inactive: 0.556.

Turning to PDDPDYSLVDD [PSTPIP2_Y323_N322D], the enrichment score is inactive: 0.776.

Consider QRRNVYFFSFL [PTEN_Y176_Y174N_YF], for which the enrichment score is inactive: 0.94.

Consider QRRYLYYYSYL [PTEN_Y176_V175L], for which the enrichment score was inactive: 0.396.

As for QRRYVYYYSYL [PTEN_Y176], the enrichment score was inactive: 1.57.

With PNQRRYVFFFS [PTEN_Y174_S170N_YF], the enrichment score was inactive: 1.09.

Turning to VMICAYLLHRG [PTEN_Y138], the enrichment score is inactive: 1.86.

As to PSQRRYLYYYS [PTEN_Y174_V175L], the enrichment score is inactive: 0.4.

In the case of EALDFCGEVRT [PTEN_Y155_Y155C], the enrichment score was inactive: 1.09.

As for IMICAYLLHRG [PTEN_Y138_V133I], the enrichment score is inactive: 2.39.

On to SSTAMYSAPGR [PSMB1_Y8], for which the enrichment score is inactive: 0.405.

On to QRRFLYFFSFL [PTEN_Y176_V175L_YF], for which the enrichment score was inactive: 0.655.

With PNQRRYVYYYS [PTEN_Y174_S170N], the enrichment score is inactive: 0.516.

As to QRCYVYYYSYL [PTEN_Y176_R173C], the enrichment score is inactive: 1.69.

Another assay concerns the target SHP2 N-SH2 domain L43F. Described as above. The conditions noted are these: peptide library: pTyr-Var.
As to EYITRYIASLK [PSMA7_Y110], the enrichment score is inactive: 1.24.

Turning to PSQRHYVYYYS [PTEN_Y174_R173H], the enrichment score was inactive: 1.38.

Take SDVDLYQVRIA [PSMD9_Y70_T74I]: the enrichment score was inactive: 0.639.

On to PSQRPYVFFFS [PTEN_Y174_R173P_YF], for which the enrichment score is active: 3.32.

Regarding PASWTYVRWFD [PTDSS1_Y274], the enrichment score was inactive: 1.33.

Regarding SSTAMYSAAGR [PSMB1_Y8_P11A], the enrichment score is inactive: 0.473.

In the case of PDDPDYSLVDD [PSTPIP2_Y323_N322D], the enrichment score was inactive: 0.605.

Consider QRRNVYFFSFL [PTEN_Y176_Y174N_YF], for which the enrichment score is inactive: 1.05.

Consider QRRYLYYYSYL [PTEN_Y176_V175L], for which the enrichment score is inactive: 0.327.

Take QRRYVYYYSYL [PTEN_Y176]: the enrichment score is inactive: 1.82.

Take PNQRRYVFFFS [PTEN_Y174_S170N_YF]: the enrichment score is inactive: 1.59.

For the molecule VMICAYLLHRG [PTEN_Y138], the enrichment score is inactive: 1.71.

On to PSQRRYLYYYS [PTEN_Y174_V175L], for which the enrichment score was inactive: 0.352.

Turning to EALDFCGEVRT [PTEN_Y155_Y155C], the enrichment score is inactive: 0.938.

Consider IMICAYLLHRG [PTEN_Y138_V133I], for which the enrichment score was inactive: 1.81.

For SSTAMYSAPGR [PSMB1_Y8], the enrichment score is inactive: 0.437.

For the molecule QRRFLYFFSFL [PTEN_Y176_V175L_YF], the enrichment score is inactive: 0.698.

Consider PNQRRYVYYYS [PTEN_Y174_S170N], for which the enrichment score was inactive: 0.355.

QRCYVYYYSYL [PTEN_Y176_R173C]: the enrichment score was inactive: 1.11.

A further assay concerns the target SHP2 N-SH2 domain T42A. The description is as above. The following applies: peptide library: pTyr-Var.
With EYITRYIASLK [PSMA7_Y110], the enrichment score is inactive: 0.99.

Take PSQRHYVYYYS [PTEN_Y174_R173H]: the enrichment score is inactive: 1.54.

For the molecule SDVDLYQVRIA [PSMD9_Y70_T74I], the enrichment score was inactive: 0.5.

For PSQRPYVFFFS [PTEN_Y174_R173P_YF], the enrichment score was active: 3.45.

On to PASWTYVRWFD [PTDSS1_Y274], for which the enrichment score is inactive: 1.69.

For the molecule SSTAMYSAAGR [PSMB1_Y8_P11A], the enrichment score is inactive: 0.377.

Take PDDPDYSLVDD [PSTPIP2_Y323_N322D]: the enrichment score is inactive: 0.497.

Take QRRNVYFFSFL [PTEN_Y176_Y174N_YF]: the enrichment score was inactive: 1.22.

Turning to QRRYLYYYSYL [PTEN_Y176_V175L], the enrichment score is inactive: 0.43.

For the molecule QRRYVYYYSYL [PTEN_Y176], the enrichment score is inactive: 1.19.

As for PNQRRYVFFFS [PTEN_Y174_S170N_YF], the enrichment score is inactive: 1.39.

With VMICAYLLHRG [PTEN_Y138], the enrichment score was inactive: 1.81.

Take PSQRRYLYYYS [PTEN_Y174_V175L]: the enrichment score is inactive: 0.197.

Regarding EALDFCGEVRT [PTEN_Y155_Y155C], the enrichment score is inactive: 0.834.

Turning to IMICAYLLHRG [PTEN_Y138_V133I], the enrichment score was inactive: 1.89.

With SSTAMYSAPGR [PSMB1_Y8], the enrichment score is inactive: 0.441.

In the case of QRRFLYFFSFL [PTEN_Y176_V175L_YF], the enrichment score is inactive: 0.741.

For the molecule PNQRRYVYYYS [PTEN_Y174_S170N], the enrichment score is inactive: 0.503.

In the case of QRCYVYYYSYL [PTEN_Y176_R173C], the enrichment score was inactive: 1.09.

The next assay addresses SHP2 N-SH2 domain T52S. The assay is described as above. The following applies: peptide library: pTyr-Var.
Regarding EYITRYIASLK [PSMA7_Y110], the enrichment score is inactive: 0.926.

As for PSQRHYVYYYS [PTEN_Y174_R173H], the enrichment score is inactive: 1.67.

On to SDVDLYQVRIA [PSMD9_Y70_T74I], for which the enrichment score was inactive: 0.605.

As for PSQRPYVFFFS [PTEN_Y174_R173P_YF], the enrichment score is active: 3.26.

PASWTYVRWFD [PTDSS1_Y274]: the enrichment score is inactive: 1.46.

SSTAMYSAAGR [PSMB1_Y8_P11A]: the enrichment score is inactive: 0.383.

For the molecule PDDPDYSLVDD [PSTPIP2_Y323_N322D], the enrichment score is inactive: 0.498.

Regarding QRRNVYFFSFL [PTEN_Y176_Y174N_YF], the enrichment score is inactive: 1.19.

Regarding QRRYLYYYSYL [PTEN_Y176_V175L], the enrichment score is inactive: 0.574.

In the case of QRRYVYYYSYL [PTEN_Y176], the enrichment score is inactive: 0.421.

As to PNQRRYVFFFS [PTEN_Y174_S170N_YF], the enrichment score was inactive: 1.99.

Regarding VMICAYLLHRG [PTEN_Y138], the enrichment score is inactive: 1.51.

As for PSQRRYLYYYS [PTEN_Y174_V175L], the enrichment score was inactive: 0.499.

On to EALDFCGEVRT [PTEN_Y155_Y155C], for which the enrichment score is inactive: 0.878.

For the molecule IMICAYLLHRG [PTEN_Y138_V133I], the enrichment score is inactive: 1.82.

In the case of SSTAMYSAPGR [PSMB1_Y8], the enrichment score is inactive: 0.406.

Turning to QRRFLYFFSFL [PTEN_Y176_V175L_YF], the enrichment score is inactive: 0.634.

Take PNQRRYVYYYS [PTEN_Y174_S170N]: the enrichment score was inactive: 0.538.

In the case of QRCYVYYYSYL [PTEN_Y176_R173C], the enrichment score was inactive: 1.17.

The target in the next assay is SHP2 N-SH2 domain wild-type. The description is as above. The following applies: peptide library: pTyr-Var.
On to EYITRYIASLK [PSMA7_Y110], for which the enrichment score was inactive: 0.992.

Regarding PSQRHYVYYYS [PTEN_Y174_R173H], the enrichment score was inactive: 1.3.

For the molecule SDVDLYQVRIA [PSMD9_Y70_T74I], the enrichment score was inactive: 0.7.

Consider PSQRPYVFFFS [PTEN_Y174_R173P_YF], for which the enrichment score was inactive: 2.45.

For the molecule PASWTYVRWFD [PTDSS1_Y274], the enrichment score was inactive: 1.03.

As for SSTAMYSAAGR [PSMB1_Y8_P11A], the enrichment score was inactive: 0.521.

With PDDPDYSLVDD [PSTPIP2_Y323_N322D], the enrichment score is inactive: 0.679.

Turning to QRRNVYFFSFL [PTEN_Y176_Y174N_YF], the enrichment score is inactive: 1.2.

As to QRRYLYYYSYL [PTEN_Y176_V175L], the enrichment score was inactive: 0.497.

In the case of QRRYVYYYSYL [PTEN_Y176], the enrichment score was inactive: 0.686.

With PNQRRYVFFFS [PTEN_Y174_S170N_YF], the enrichment score is inactive: 0.829.

In the case of VMICAYLLHRG [PTEN_Y138], the enrichment score is inactive: 1.89.

For the molecule PSQRRYLYYYS [PTEN_Y174_V175L], the enrichment score was inactive: 0.263.

Consider EALDFCGEVRT [PTEN_Y155_Y155C], for which the enrichment score is inactive: 1.07.

On to IMICAYLLHRG [PTEN_Y138_V133I], for which the enrichment score is inactive: 1.94.

As for SSTAMYSAPGR [PSMB1_Y8], the enrichment score is inactive: 0.533.

As to QRRFLYFFSFL [PTEN_Y176_V175L_YF], the enrichment score was inactive: 0.387.

With PNQRRYVYYYS [PTEN_Y174_S170N], the enrichment score is inactive: 0.411.

For the molecule QRCYVYYYSYL [PTEN_Y176_R173C], the enrichment score is inactive: 1.7.
